Patent US20240376128A1, “N-CYCLOPROPYLPYRIDO [4, 3-D] PYRIMIDIN-4-AMINE DERIVATIVES AND USES THEREOF” (Jacobio Pharmaceuticals Co., Ltd., priority 2021, published 2024)

Key:
[1] = system: TCC-PAN2 cell line (K-Ras G12R); experiment: Phospho-ERK1/2(THR202/TYR204) HTRF assay; format: cell-based; conditions: TCC-PAN2 cells (K-Ras G12R), 2 hours incubation; read-out: p-ERK, IC50(nM) TCC-PAN2
[2] = system: MKN-1 cell line (K-Ras WT amplification); experiment: Phospho-ERK1/2(THR202/TYR204) HTRF assay; format: cell-based; conditions: Homo sapiens; MKN-1 cells (K-Ras WT amplification), 2 hours incubation; read-out: p-ERK, IC50(nM) MKN-1
[3] = system: SW620 cell line (K-Ras G12V); experiment: Phospho-ERK1/2(THR202/TYR204) HTRF assay; format: cell-based; conditions: Homo sapiens, SW-620; SW620 cells (K-Ras G12V), 2 hours incubation; read-out: p-ERK, IC50(nM) SW620
[4] = biological target: T1, K-Ras G13D (Homo sapiens, UniProt P01116, G13D); experiment: Nucleotide exchange assay (GDP form K-Ras, no SOS1 added), TR-FRET; conditions: read-out: Biochemical assays, IC50, K-Ras G13D GDP
Method: (§1) The parameters were F486: Excitation 340 nm, Emission 486 nm, Lag time 100 pas, Integration time 200 pas; F515: Excitation 340 nm, Emission 515 nm, Lag time 100 pas, Integration time 200 pas. TR-FRET ratios for each individual wells were calculated by equation: TR-FRET ratio=(Signal F515/Signal F486)*10000.

[5] = system: NCI-H358 cell line (K-Ras G12C); experiment: Phospho-ERK1/2(THR202/TYR204) HTRF assay; format: cell-based; conditions: Homo sapiens; NCI-H358 cells (K-Ras G12C), 2 hours incubation; read-out: p-ERK, IC50(nM) NCI-H358
[6] = system: NCI-H460 cell line (K-Ras Q61H); experiment: Phospho-ERK1/2(THR202/TYR204) HTRF assay; format: cell-based; conditions: Homo sapiens; NCI-H460 cells (K-Ras Q61H), 2 hours incubation; read-out: p-ERK, IC50(nM) NCI-H460
[7] = biological target: T2, K-Ras WT (Homo sapiens, UniProt P01116); experiment: GTP-K-Ras (GppNp-K-Ras) and cRAF interaction assay, HTRF; conditions: read-out: Biochemical assays, IC50, K-Ras WT GppNp
From the text: (§2) GppNp is an analog of GTP.

[8] = biological target: T3, K-Ras G12V (Homo sapiens, UniProt P01116, G12V); experiment: as above; conditions: read-out: Biochemical assays, IC50, K-Ras G12V GppNp
From the text: as §2

[9] = biological target: K-Ras G12D (Homo sapiens, UniProt P01116, G12D); experiment: as above; conditions: read-out: Biochemical assays, IC50, K-Ras G12D GppNp
From the text: as §2

[10] = biological target: T4, K-Ras G12R (Homo sapiens, UniProt P01116, G12R); experiment: as above; conditions: read-out: Biochemical assays, IC50, K-Ras G12R GppNp
From the text: as §2

[11] = biological target: T5, K-Ras G12C (Homo sapiens, UniProt P01116, G12C); experiment: as above; conditions: read-out: Biochemical assays, IC50, K-Ras G12C GppNp
From the text: as §2

[12] = biological target: T6, K-Ras G12A (Homo sapiens, UniProt P01116, G12A); experiment: as above; conditions: read-out: Biochemical assays, IC50, K-Ras G12A GppNp
From the text: as §2

[13] = biological target: T7, K-Ras Q61H (Homo sapiens, UniProt P01116, Q61H); experiment: as above; conditions: read-out: Biochemical assays, IC50, K-Ras Q61H GppNp
From the text: as §2

[14] = biological target: T1, K-Ras G13D; experiment: as above; conditions: read-out: Biochemical assays, IC50, K-Ras G13D GppNp
From the text: as §2

[15] = system: AGS cell line (K-Ras G12D); experiment: Phospho-ERK1/2(THR202/TYR204) HTRF assay; format: cell-based; conditions: Homo sapiens; AGS cells (K-Ras G12D), 2 hours incubation; read-out: p-ERK, IC50(nM) AGS
[16] = system: RERF-LC-Ad1 cell line (K-Ras G12A); experiment: Phospho-ERK1/2(THR202/TYR204) HTRF assay; format: cell-based; conditions: RERF-LC-Ad1 cells (K-Ras G12A), 2 hours incubation; read-out: p-ERK, IC50(nM) RERF-LC-Ad1
[17] = system: K-Ras mutant and K-Ras WT cell lines indicated in Table 20; experiment: 2D cell growth inhibition assay (CellTiter-Glo, 6 days); format: cell-based
Method: Each of cells in culture medium was plated in TC-treated 96-well plates at a density indicated in Table 20 and incubated in a cell incubator overnight.

[18] = biological target: T2, K-Ras WT; experiment: SOS1 catalyzed nucleotide exchange assay (GDP form K-Ras), TR-FRET; conditions: read-out: Biochemical assays, IC50, K-Ras WT GDP
Method: as §1

[19] = biological target: T3, K-Ras G12V; experiment: as above; conditions: read-out: Biochemical assays, IC50, K-Ras G12V GDP
Method: as §1

[20] = biological target: T4, K-Ras G12R; experiment: as above; conditions: read-out: Biochemical assays, IC50, K-Ras G12R GDP
Method: as §1

[21] = biological target: T5, K-Ras G12C; experiment: as above; conditions: read-out: Biochemical assays, IC50, K-Ras G12C GDP
Method: as §1

[22] = biological target: T6, K-Ras G12A; experiment: as above; conditions: read-out: Biochemical assays, IC50, K-Ras G12A GDP
Method: as §1

[23] = biological target: T7, K-Ras Q61H; experiment: as above; conditions: read-out: Biochemical assays, IC50, K-Ras Q61H GDP
Method: as §1

[24] = 144 h, AGS (K-Ras G12D), absolute IC50, read-out: Cell Growth Inhibition, IC50, AGS
[25] = Homo sapiens, ASPC1, 144 h, AsPC-1 (K-Ras G12D), absolute IC50, read-out: Cell Growth Inhibition, IC50, AsPC-1
[26] = Homo sapiens, SW-620, 144 h, SW620 (K-Ras G12V), absolute IC50, read-out: Cell Growth Inhibition, IC50, SW620

Row | Structure (SMILES) | IC50 [1] [nM] | IC50 [2] [nM] | IC50 [3] [nM] | IC50 [4] [nM] | IC50 [5] [nM] | IC50 [6] [nM] | IC50 [7] [nM] | IC50 [8] [nM] | IC50 [9] [nM] | IC50 [10] [nM] | IC50 [11] [nM] | IC50 [12] [nM] | IC50 [13] [nM] | IC50 [14] [nM] | IC50 [15] [nM] | IC50 [17, 24] [nM] | IC50 [17, 25] [nM] | IC50 [17, 26] [nM] | IC50 [18] [nM] | IC50 [19] [nM] | further results
1 | C#Cc1c(F)ccc2cc(O)cc(-c3ncc4c(N(CC)[C@@H]5C[C@H]5F)nc(OC[C@@]56CCCN5C[C@H](F)C6)nc4c3F)c12.O=C(O)C(F)(F)F (mixture of isomers) [Compound 6, 4-(4-(ethyl(trans-2-fluorocyclopropyl)amino)-8-fluoro-2-(((2R,7aS)-2-fluorotetrahydro-1H-pyrrolizin-7a(5H)-yl)methoxy)pyrido[4,3-d]pyrimidin-7-yl)-5-ethynyl-6-fluoronaphthalen-2-ol 2,2,2-trifluoroacetic acid] | 278 | 3.82 | 5.96 | 4.38 | 75.1 | 51.2 | 218 | 167 | 118 | 101 | 564 | > 1000 | 388 | 8.55 | 4.81 | 17.7 | 53.5 | 21.2 | 4.24 | 4.43 | IC50 [16]: 3.7 nM; IC50 [20]: 3.11 nM; IC50 [21]: 3.03 nM; IC50 [22]: 6.09 nM; IC50 [23]: 2.87 nM
2 | C=Cc1c(F)ccc2cc(O)cc(-c3ncc4c(N(C)[C@@H]5C[C@H]5F)nc(OC[C@@]56CCCN5C[C@H](F)C6)nc4c3F)c12.O=C(O)C(F)(F)F (mixture of isomers) [Compound 16, 6-fluoro-4-(8-fluoro-4-((trans-2-fluorocyclopropyl)(methyl)amino)-2-(((2R,7aS)-2-fluorotetrahydro-1H-pyrrolizin-7a(5H)-yl)methoxy)pyrido[4,3-d]pyrimidin-7-yl)-5-vinylnaphthalen-2-ol 2,2,2-trifluoroacetic acid] | ~1000 | 13.8 | 2.28 | 6.97 | 60.1 | 82.7 | 400 | 441 | 90.5 | 501 | 731 | > 1000 | 436 | 10.4 | 28.1 | 22 | 142 | 14.4 | 7.4 | 3.81 | IC50 [20]: 5.74 nM; IC50 [21]: 5.21 nM; IC50 [22]: 10.7 nM; IC50 [23]: 4.51 nM
3 | C#Cc1c(F)ccc2cc(O)cc(-c3ncc4c(N(C)C5CC5)nc(OC[C@@]56CCCN5C[C@H](F)C6)nc4c3F)c12 [Compound 1, 4-(4-(cyclopropyl(methyl)amino)-8-fluoro-2-(((2R,7aS)-2-fluorotetrahydro-1H-pyrrolizin-7a(5H)-yl)methoxy)pyrido[4,3-d]pyrimidin-7-yl)-5-ethynyl-6-fluoronaphthalen-2-ol] | 760 | 10.6 | 9.18 | 15.2 | 8.93 | 63.6 | 108 | 204 | 50.2 | 86.4 | 426 | 421 | 144 | 10.1 | 23.8 | 38.8 | 751 | 19.5 | 3.23 | 0.683 | IC50 [16]: 8.32 nM; IC50 [20]: 2.93 nM; IC50 [21]: 4.21 nM; IC50 [22]: 5.6 nM; IC50 [23]: 3.93 nM
4 | C#Cc1c(F)ccc2cc(O)cc(-c3ncc4c(N(C)[C@H]5C[C@@H]5F)nc(OC[C@@]56CCCN5C[C@H](F)C6)nc4c3F)c12 [Compound 3A, 5-ethynyl-6-fluoro-4-(8-fluoro-4-(((1S,2S)-2-fluorocyclopropyl)(methyl)amino)-2-(((2R,7aS)-2-fluorotetrahydro-1H-pyrrolizin-7a(5H)-yl)methoxy)pyrido[4,3-d]pyrimidin-7-yl)naphthalen-2-ol] | 201 | 1.93 | 0.969 | 0.939 | 3.49 | 10.3 | 77.9 | 54.8 | 22.2 | 42.9 | 122 | 149 | 70 | 2.77 | 4.09 | 4.99 | 61.3 | 2.28 | 0.707 | 1.97 | IC50 [16]: 4.05 nM; IC50 [20]: 1.04 nM; IC50 [21]: 0.526 nM; IC50 [22]: 0.999 nM; IC50 [23]: 0.729 nM

Where two headings read alike, the source gives them in different places.
